Assay results published in paper PMC12040169 (PLOS Biology, 2025).
The list shows a part of the results.

The compounds below were run on T1, C. trachomatis L2/434/Bu expressing GFP (CTL2-GFP). Conditions: total inclusion area; 28.5 h, 10 µM; inhibitor.
T1 construct: L2/434/Bu GFP intracellular growth in HeLa cells
Design: species or system HeLa; C. trachomatis total inclusion area by high-content imaging, normalised to DMSO
In short: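 Imaging read-out: GFP inclusions and Hoechst nuclei captured by high-content imaging after fixation. Inclusion area/number = chlamydial growth; nuclei count = host cell viability. MIC calculated per earlier method.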

| SMILES | % of control remaining |
| --- | --- |
| Cc1cc(NC(=O)CN2CCN(Cc3ccc(Cl)nc3)CC2)no1 [CBK305504] | 39.2424 |
| O=C1NC2(CCNCC2)Oc2ccc(-c3cccc4ncccc34)cc21 [CBK083775T] | 93.9412 |
| COCCN(C(=O)c1nc2cccnc2s1)C1CCS(=O)(=O)C1 (centres unmarked) [CBK304091] | 46.8345 |
| CN(C)C(=O)c1cn2cc(-c3cccs3)n(CC3CC3)c(=O)c2n1 [CBK307440] | 97.6238 |
| C=CCN(C)C(=O)[C@H]1C[C@@H](O)[C@H](O)[C@@H]2N=C(Nc3ccc(Cl)cc3)S[C@@H]21 [CBK288946] | 120.424 |
| CCC(=O)NC(=S)Nc1ccc(C(=O)N2CCCC2)cc1 [CBK288464] | 97.9713 |
| Cc1nn(C)c(C)c1NC(=O)CN1CCN(c2ccccc2Cl)CC1 [CBK306058] | 70.9351 |
| O=C(NC(=O)C1CCN(CC2COc3ccccc3O2)CC1)Nc1ccccc1 (centres unmarked) [CBK035267] | 108.682 |
| Cc1ccc(Cc2nc(-c3cccnc3)no2)cc1 [CBK288141] | 40.2906 |
| C[C@@H]1CN(C(=O)c2n[nH]c3ccccc23)C[C@H](C)O1 [CBK200232] | 101.61 |
| Cc1nn(-c2ccccc2)c2[nH]c(=O)c(CNC3CCC3)cc12 [CBK282897] | 83.2033 |
| O=C(CSc1cccc2ccccc12)Nc1ccc([N+](=O)[O-])cc1O [CBK268696] | 72.0852 |
| Cc1ccc(-c2cc(C(=O)NCC3(C)COC3)no2)cc1 [CBK281744] | 90.7337 |
| Cc1nc(N2CCN(Cc3ccc4c(c3)OCO4)CC2)c2c(C)c(C)sc2n1 [CBK266739] | 92.2292 |
| Cc1cccc(C(=O)Nc2nnc(C3=COCCO3)o2)c1 [CBK287406] | 95.4113 |
| COc1cc(C(=O)Nc2ccccc2C(=O)N2CCN(C)CC2)cc(OC)c1OC [CBK269803] | 104.495 |
| COc1cc(CNC(=O)N(CCc2ccccc2)Cc2ccccc2)cc(OC)c1OC [CBK155329] | 45.0406 |
| Cc1cc(NC(=O)COc2ccc(Cl)cc2)nc2c1c(=O)oc1ccccc12 [CBK291230] | 132.808 |
| CCc1cc(NCCc2ccc(=O)[nH]c2)nc(-c2ccc(Br)cc2)n1 [CBK144610C] | 88.9379 |
| O=C(NCCc1ccccn1)N1CCCN(Cc2cccs2)CC1 [CBK305283] | 86.3946 |
| Cc1cc2cc(NC(=O)CCc3c(C)n[nH]c3C)ccc2o1 [CBK283077] | 102.318 |
| CC(C)Nc1nc(C#N)nc(NC(C)C)n1 [CBK027421] | 72.4548 |
| COCc1nnc(Sc2cc(N3CCCC3)ncn2)s1 [CBK093746] | 104.814 |
| O=C(CCCn1ccnc1)NC(Cc1ccsc1)c1cccnc1 (centres unmarked) [CBK285158] | 89.7788 |
| COc1ccccc1-c1cc2nc(C)cc(Nc3ccccc3)n2n1 [CBK287806] | 82.8335 |
| CCOC(=O)c1nnsc1Sc1ccc(C)cc1 [CBK018867] | 55.4792 |
| CN(C)c1cccc(OCCn2ccnc(N3CCNCC3)c2=O)c1 [CBK013866F] | 114.213 |

| SMILES | % of control remaining |
| --- | --- |
| COc1ccccc1OCC(=O)N1CCN(C(=O)c2ccco2)CC1 [CBK144466] | 114.551 |
| Cc1cc(C)c2c(c1)cc(C)c1nn(CC(=O)N3CCCC3)c(=O)n12 [CBK283876] | 94.0042 |
| O=C(O)c1ccc(CN2C(=O)c3ccc(C(=O)c4ccc(C(=O)O)cc4)cc3C2=O)cc1 [CBK262831] | 109.408 |
| CN1CCN(Cc2c(C(C)(C)C)[nH]c3ncccc23)CC1 [CBK285334] | 91.5981 |
| CCC(NC(=O)C(c1cccs1)c1cccs1)c1ccc(F)cc1 (centres unmarked) [CBK286339] | 101.509 |
| COc1ccc(CCNC(=O)N2CCCCC2CO)cc1 (centres unmarked) [CBK156188] | 97.7843 |
| Cc1nccn1CCNC(=O)CC1C(=O)N(C)c2ccccc21 (centres unmarked) [CBK281977] | 83.5085 |
| O=C(CC1NC(=O)NC1=O)Nc1ccc(C(=O)O)cc1 (centres unmarked) [CBK267355] | 112.433 |
| CC(C)(C)OC(=O)N1CCN(C(=O)N[C@@H](Cc2ccccc2)C(=O)O)CC1 [CBK286785] | 110.535 |
| CCN(CC)CC1CCCN(C(=O)Cn2ccc3ccc(F)cc32)C1 (centres unmarked) [CBK282146] | 87.3401 |
| COc1ccc(C(=O)C2=C(O)C(=O)N(CCN(C)C)C2c2ccncc2)c(C)c1 (centres unmarked) [CBK264867] | 115.669 |
| Cc1cc(C)n2ncc(C(=O)NCC(c3cccs3)N3CCCC3)c2n1 (centres unmarked) [CBK305675] | 81.3396 |
| CC(C)CNC(=O)c1cc([C@H]2CC[C@H](CNC(=O)c3cnn(C)c3)CC2)nc2ccccc12 [CBK285867] | 80.7474 |
| Fc1ccc(Oc2nccnc2N2CCN(Cc3cccnc3)CC2)cc1 [CBK083011] | 74.9562 |
| CN(CC(=O)O)S(=O)(=O)c1cccc2cccc(Cl)c12 [CBK268433] | 95.4192 |
| CN(c1cc(F)ccc1[N+](=O)[O-])S(C)(=O)=O [CBK001365] | 93.5518 |
| c1ccc(CCN2CCC(c3nc(-c4ccccc4)no3)CC2)cc1 [CBK051454] | 83.7104 |
| CC(=O)Nc1ccc(NC(=O)CSCC(=O)O)cc1 [CBK226269] | 86.11 |
| N#Cc1ccc(CNC(=O)N2CCc3ccccc3C2)cc1 [CBK155287] | 110.122 |
| Cc1c(NCc2ccc3c(c2)n(C)c(=O)n3C)cccc1C(=O)O [CBK287237] | 103.274 |
| COCCOCN1C(=O)CC2(C1=O)C(=O)N(Cc1ccc(OC(F)(F)F)cc1)c1ccccc12 (centres unmarked) [CBK075942] | 115.873 |
| CC(=O)O/C(N)=N/c1nonc1N [CBK021885] | 56.0635 |
| COc1ccc(CN[C@H]2[C@H](O)[C@@H](N3CCCC3)[C@@H]3OC[C@H]2O3)cc1 [CBK288827] | 120.13 |
| COc1cc(CNCc2ccco2)ccc1OCC(N)=O [CBK270204C] | 107.571 |
| Cn1nc(-c2ccc(S(=O)(=O)Nc3ccc4cn[nH]c4c3)s2)cc1C(F)(F)F [CBK067156] | 92.536 |
| CCCC/C=C/c1cn2ccnc2c(N2CCN(c3ccccn3)CC2)n1 [CBK066224] | 120.599 |
| Cc1nc(S(=O)(=O)Nc2ccc3[nH]ccc3c2)cn1C [CBK156800] | 89.1895 |

| SMILES | % of control remaining |
| --- | --- |
| O=C(O)C1CCCN(C(=O)Cn2ccc3ccc(OCc4ccccc4)cc32)C1 (centres unmarked) [CBK286814] | 103.711 |
| Cc1cc(C)c2oc(-c3ccc(Cl)c(NC(=O)Cc4ccc(Cl)cc4)c3)nc2c1 [CBK264695] | 100.239 |
| COc1ccc(C(C)C)cc1-c1cnc(N)c(Nc2ccc3[nH]ccc3c2)n1 [CBK063827] | 164.283 |
| COc1nccnc1OC1CCN(CC(N)=O)CC1 [CBK084248] | 95.4608 |
| OCC1CCCN1c1cc(Cl)nc2ccnn12 (centres unmarked) [CBK037011] | 62.7579 |
| CC(=O)NCC(=O)N(c1ccccc1)C1(C(=O)NC(c2ccccc2)c2ccccc2)CCCC1 [CBK100884] | 106.152 |
| O=S(=O)(NCc1nc2ccccc2[nH]1)c1ccc(Cl)c(Cl)c1 [CBK261137] | 93.2672 |
| CC(CCc1ccc(F)cc1)NC(=O)c1cc2c([nH]c1=O)CCC2 (centres unmarked) [CBK281512] | 82.5999 |
| COc1cc(/C=C2\SC(=N)NC2=O)ccc1OCC(=O)O [CBK262675] | 100.407 |
| CN(C)CCN1C(=O)C(O)=C(C(=O)c2cccs2)C1c1ccc([N+](=O)[O-])cc1 (centres unmarked) [CBK264584] | 109.17 |
| CCN(CC(=O)NCc1ccc(F)cc1)S(=O)(=O)c1ccc(Cl)s1 [CBK305837] | 57.431 |
| CC(Cc1nc(C2CC2)cs1)n1cc(Cl)cn1 (centres unmarked) [CBK304707] | 52.5512 |
| O=C(CSc1ccccc1)Nc1cccc(Oc2ccc3c(c2)C(=O)NC3=O)c1 [CBK266500] | 109.623 |
| C[C@@H]1CNCCN1c1nccnc1OCCOc1cccnc1OCCN [CBK040757T] | 91.1956 |
| CC(C)[C@H]1SC(NC[C@H](C)c2ccccc2)=NC1=O [CBK074034] | 36.1211 |
| CN(C)CCN(C)c1cccc(-c2ccc(CCC(=O)O)cc2)n1 [CBK036983] | 128.089 |
| CC(C)n1cc(C(=O)N2CCCC2c2nc3ccccc3[nH]2)cn1 (centres unmarked) [CBK284667] | 106.505 |
| O=c1[nH]nc(-c2cccs2)n1-c1cccnc1 [CBK283854] | 51.4031 |
| CN(C)CCNC(=O)c1ccc(-c2cnc(OCC3CCN(C(=O)OC(C)(C)C)CC3)nc2)cc1 [CBK167544] | 114.907 |
| O=c1c2c(nc(NCCO)n1-c1ccccc1)-c1ccccc1CC21CCCCC1 [CBK262589] | 102.084 |
| CC1=CC(=O)OC1(O)c1ccc(Br)cc1 (centres unmarked) [CBK022687] | 83.6241 |
| Cc1nn(CC(=O)N2CCCC(C)C2)c(=O)c2cc3sccc3n12 (centres unmarked) [CBK284046] | 84.0261 |
| Cc1ccnc2c1C(=O)C1(CC2)CCN(S(=O)(=O)c2c(C)noc2C)CC1 [CBK059557T] | 70.7341 |
| COc1cc(NS(=O)(=O)c2ccc(NC(=O)c3ccc(C)o3)cc2)nc(OC)n1 [CBK268182] | 96.0964 |
| Cc1cc(-c2ccc(/N=C/c3cccc(O)c3O)c(C)c2)ccc1/N=C/c1cccc(O)c1O [CBK261613] | 93.5226 |
| C#CCNC(=O)[C@H]1O[C@H](CCN2CCCCC2)CC[C@@H]1O [CBK288728] | 111.134 |
